Results taken from PubChem BioAssay AID2546 (National Center for Advancing Translational Sciences (NCATS), 2010).
Among all 310,000 compounds or so, about 11,000 (3.5%) were called active. Inconclusive results, whose numbers are uncertain, are shown with a selection of clear calls. Calls follow the shape of the dose curve; as a rule, active = well fitted inhibition curve with a large enough effect; inconclusive = small, poorly fitted or top-dose-only effect, or effect the other way; inactive = flat fitted curve, though single readings scatter. Potencies of inconclusive entries are left out as doubtful fits.

assay: VP16 counterscreen qHTS for inhibitors of ROR gamma transcriptional activity; conditions: Drosophila S2 Gal4-VP16 UAS-luciferase, luminescence, 20 h; activity, negative = inhibition: at 53.6 µM (top of the series);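 also: Gal4-VP16 expression switched on by copper sulfate through the metallothionein promoter; nearly all actives have a fitted effect of over 50% in size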
% is scaled to controls: 0 for no effect and ±100 for the full control effect; potency is read from the fitted curve at half-maximal effect; tags tell the direction and shape of the fitted curve.

Q: Which Potency does the source give for `Cc1oc2c(c1C(=O)Nc1cccc(C(=O)O)c1)CCCC2` here?
A: inconclusive [inhibitor, single point]

Q: For `N#CC1=C(N)C(C#N)(C#N)[C@H](c2ccsc2)[C@H]2COCC=C12`, which Potency is on record?
A: inconclusive [inhibitor, single point]

Q: Which Potency does the source give for `COc1ccccc1-n1cc(-c2ccc([N+](=O)[O-])cc2)[nH]c1=S` here?
A: inactive

Q: Which Potency does the source give for `CC1CCN(C(=O)c2cc3c(ccc4ccccc43)o2)CC1` here?
A: active: 10 µM

Q: For `CC(C)c1ccccc1NC(=S)NC1CCCCC1`, which Potency is on record?
A: active: 10 µM

Q: With `O=C(CCC(=O)OCC(=O)c1ccc(-c2ccccc2)cc1)Nc1cccc2cccnc12` as the compound, how does the Potency read?
A: active: 3.98 µM

Q: For `COc1cc(/C=N/Nc2nc3ccccc3o2)cc(OC)c1O`, which Potency is on record?
A: inconclusive [inhibitor, single point]

Q: For `NNc1nc(Nc2ccccc2)nc(N2CCCCC2)n1`, which Potency is on record?
A: active: 7.08 µM

Q: With `Cc1cc(C)cc(-c2nc(-c3ccncc3)no2)c1` as the compound, how does the Potency read?
A: inactive

Q: With `CCOc1ccc(N2C(=O)CC(Sc3nnnn3-c3ccccc3)C2=O)cc1` (stereo unspecified) as the compound, how does the Potency read?
A: inconclusive [inhibitor, single point]

Q: With `OC(c1ccccn1)(c1ccccn1)c1ccccn1` as the compound, how does the Potency read?
A: inactive

Q: For `COCc1cc(S(=O)c2ccc(Cl)cc2)nc(C)n1` (stereo unspecified), which Potency is on record?
A: inconclusive [inhibitor, single point]

Q: With `O=C(O)c1ccc(Sc2nnnn2-c2ccccc2)c([N+](=O)[O-])c1` as the compound, how does the Potency read?
A: inactive

Q: With `C=C(C)CNC(=S)NNC(=O)CCn1c2ccccc2c2ccccc21` as the compound, how does the Potency read?
A: inconclusive [inhibitor, single point]

Q: Which Potency does the source give for `C=CCc1ccc(OCC(O)COc2ccc(CC=C)cc2OC)c(OC)c1` here?
A: inconclusive [inhibitor, partial curve]

Q: For `Cc1ccc2c(c1)Cc1nc3ccccc3nc1-2`, which Potency is on record?
A: active: 14.1 µM

Q: For `COc1ccc(/C=C/C(=O)NC(=S)Nc2ccccc2)cc1OC`, which Potency is on record?
A: inconclusive [inhibitor, single point]

Q: With `Nc1c(-c2cccc(Cl)c2)cnn1-c1cccc([N+](=O)[O-])c1` as the compound, how does the Potency read?
A: inconclusive [inhibitor, single point]

Q: With `COc1ccc(/C=C/c2c(-c3ccc(OC)cc3)oc3cccnc23)cc1` as the compound, how does the Potency read?
A: inconclusive [inhibitor, single point]

Q: For `Cc1cc2nc(SCC(=O)Nc3ccccc3C(=O)O)[nH]c2cc1C`, which Potency is on record?
A: inactive

Q: For `Cc1cc(C)c(C(N)=O)c(Nc2cccc3ccccc23)n1`, which Potency is on record?
A: inconclusive [inhibitor, single point]

Q: For `O=C(O)c1ccc(/C=N/Nc2ncc(Cl)cc2Cl)cc1`, which Potency is on record?
A: inactive

Q: Which Potency does the source give for `COc1ccc2[nH]c(=O)c(CN(CC3CCCO3)C(=O)Nc3ccc(F)cc3)cc2c1` (stereo unspecified) here?
A: inconclusive [inhibitor, single point]

Q: With `C=C(C)COc1ccc(-c2nc(N)ncc2Oc2ccc(OC)cc2)c(O)c1` as the compound, how does the Potency read?
A: inactive

Q: With `CCOC(=O)c1ccc(S(=O)(=O)Nc2ccccc2-c2nnn(CC)n2)cc1` as the compound, how does the Potency read?
A: inconclusive [inhibitor, single point]

Q: Which Potency does the source give for `CC(C)Cn1c(=O)c(C(=O)Nc2ccccc2S(N)(=O)=O)c(O)c2ccccc21` here?
A: inconclusive [inhibitor, single point]

Q: Which Potency does the source give for `CC(NC(=S)NCCCN1CCOCC1)C1CC2CCC1C2` (stereo unspecified) here?
A: inconclusive [inhibitor, single point]

Q: Which Potency does the source give for `CCCCNC(=O)CCC(=O)Nc1ncc(-c2ccc(C)cc2)n1C` here?
A: active: 3.98 µM

Q: With `FC(F)(F)c1ccc(Cl)c(NC(=S)N/N=C/c2ccccc2C(F)(F)F)c1` as the compound, how does the Potency read?
A: active: 0.562 µM

Q: With `O=C(NNc1cc(N2CCCC2)nc(N2CCCC2)n1)c1ccc([N+](=O)[O-])cc1` as the compound, how does the Potency read?
A: active: 3.16 µM

Q: Which Potency does the source give for `O=C(Nc1nnc(-c2cccs2)o1)c1cc(-c2ccccc2)nc2ccccc12` here?
A: active: 2.51 µM

Q: With `COC(=O)c1c(NC(NC(=O)CC(C)C)C(Cl)(Cl)Cl)sc2c1CCC2` (stereo unspecified) as the compound, how does the Potency read?
A: inactive

Q: Which Potency does the source give for `CCOc1ccc(S(=O)(=O)Nc2ccccc2C(=O)N/N=C/c2c(OC)ccc3ccccc23)cc1` here?
A: active: 5.62 µM

Q: With `CCn1ncc(/C=N\NC(=O)c2cc(-c3ccc(C)cc3C)nc3ccccc23)c1C` as the compound, how does the Potency read?
A: inconclusive [inhibitor, single point]

Q: For `O=C(c1ccc2c(=O)n(Cc3ccccc3)c(=S)[nH]c2c1)N1CCOCC1`, which Potency is on record?
A: inconclusive [inhibitor, single point]

Q: Which Potency does the source give for `S=c1[nH]nc(-c2cccc(Cl)c2)n1Cc1ccccc1` here?
A: active: 2.51 µM

Q: Which Potency does the source give for `CC(C)c1cc(-c2n[nH]c(=S)n2Cc2ccccc2)cs1` here?
A: inconclusive [inhibitor, full curve]

Q: For `CCN(CC)CCn1c(/N=C/c2cc(Br)ccc2O)nc2ccccc21`, which Potency is on record?
A: active: 6.31 µM

Q: Which Potency does the source give for `CC1=C(C(=O)OC2CCCCCC2)C(c2ccc(C)o2)C2=C(CCCC2=O)N1` (stereo unspecified) here?
A: inactive

Q: With `O=C(NNC(=O)c1cc(-c2ccccc2)nn1-c1ccccc1)c1ccccc1` as the compound, how does the Potency read?
A: inconclusive [inhibitor, single point]

Q: For `O=C(N/N=C/c1ccc2c(c1)OCO2)c1ccccn1`, which Potency is on record?
A: inconclusive [inhibitor, partial curve]

Q: For `Cc1cccc(NC(=O)c2cnn(C)c2)c1C`, which Potency is on record?
A: inactive

Q: Which Potency does the source give for `O=C(CNC(=O)c1ccccc1)OCCCOC(=O)CNC(=O)c1ccccc1` here?
A: inactive

Q: With `CCCCn1c(=O)[nH]c(=O)c2c1nc(-c1ccc(-c3ccc(F)cc3)o1)n2C` as the compound, how does the Potency read?
A: inactive

Q: For `Cc1cccc(N=C2NC(=O)/C(=C/c3cccn3C)S2)c1`, which Potency is on record?
A: inconclusive [inhibitor, single point]

Q: With `COc1cccc(-c2csc(NC(=O)Nc3ccccc3)n2)c1` as the compound, how does the Potency read?
A: inconclusive [inhibitor, partial curve]

Q: Which Potency does the source give for `Cc1cccc(NC(=S)N2N=CCC2c2ccccc2)c1` (stereo unspecified) here?
A: inconclusive [inhibitor, partial curve]

Q: With `CCCCn1c(N)c(N(Cc2ccccc2OC)C(=O)CCSC)c(=O)[nH]c1=O` as the compound, how does the Potency read?
A: inactive

Q: Which Potency does the source give for `Cc1c(C)n(CCO)c2ncnc(Nc3ccc(F)cc3)c12` here?
A: inconclusive [activator, partial curve]

Q: With `Cc1ccc(Nc2nc3ccccc3s2)cc1` as the compound, how does the Potency read?
A: inconclusive [inhibitor, single point]

Q: For `CN(C)c1ccc(N=Nc2nc3ccccc3n2C)cc1`, which Potency is on record?
A: active: 1.26 µM

Q: For `CC(C(=O)N/N=C/c1ccc(N(C)C)c(Br)c1)N(c1ccccc1)S(C)(=O)=O` (stereo unspecified), which Potency is on record?
A: inactive

Q: Which Potency does the source give for `COCCn1c(=O)[nH]c(=O)c2c1nc(-c1ccc(-c3ccc(Cl)cc3[N+](=O)[O-])o1)n2Cc1ccccc1` here?
A: inconclusive [inhibitor, single point]

Q: Which Potency does the source give for `O=C(Cc1ccccc1F)Nc1nc(-c2cccs2)cs1` here?
A: inconclusive [activator, single point]

Q: Which Potency does the source give for `CCN(CC)S(=O)(=O)c1ccc(C)c(NC(=O)CSc2nc3ccc(C)cc3[nH]2)c1` here?
A: inactive

Q: Which activity, negative = inhibition does the source give for `OCC1CCCCN1C(=S)Nc1cccc(Cl)c1` (stereo unspecified) here?
A: inactive: -3.51% [at 10 µM]

Q: With `Cc1cc(C(=O)COc2cccnc2[N+](=O)[O-])c(C)n1-c1ccccc1` as the compound, how does the Potency read?
A: inconclusive [inhibitor, single point]

Q: For `Fc1ccc(Sc2nc(-c3ccccc3)nnc2C(F)(F)F)cc1`, which Potency is on record?
A: active: 7.08 µM

Q: With `CCOc1ccc(C(=O)Nc2ccc(Cl)cn2)cc1Cl` as the compound, how does the Potency read?
A: inconclusive [inhibitor, single point]

Q: With `COc1ccc2nc(N/C(N)=N/C(=S)Nc3cccc(C)c3)nc(C)c2c1` as the compound, how does the Potency read?
A: active: 4.47 µM

Q: Which Potency does the source give for `CCc1sc(C(C2C(=O)CC(C)(C)CC2=O)C2C(=O)CC(C)(C)CC2=O)cc1[N+](=O)[O-]` here?
A: inconclusive [inhibitor, single point]

Q: Which Potency does the source give for `COc1ccc2[nH]cc(S(=O)(=O)c3ccc(F)cc3)c(=O)c2c1` here?
A: inconclusive [inhibitor, single point]

Q: For `O=[N+]([O-])c1ccc(CCNc2cccc3ccccc23)c([N+](=O)[O-])c1`, which Potency is on record?
A: inconclusive [inhibitor, partial curve]

Q: Which Potency does the source give for `Cc1cc(C)c2c(c1)/C(=N/NC(=O)c1ccc(O)cc1)CCC2` here?
A: inconclusive [inhibitor, single point]

Q: Which Potency does the source give for `NC(=O)CSCc1c(Cl)cccc1Cl` here?
A: inactive

Q: For `COc1ccc(OC)c(Cc2nnc(CCC(=O)N3CCC(N4CCCCC4)CC3)o2)c1`, which Potency is on record?
A: inconclusive [inhibitor, single point]

Q: With `O=S(=O)(Nc1cccc2cccnc12)c1ccccc1` as the compound, how does the Potency read?
A: active: 3.55 µM

Q: Which Potency does the source give for `CC(=O)Nc1ccc(OCc2cccc([N+](=O)[O-])c2)cc1` here?
A: inconclusive [activator, single point]

Q: For `CC(=O)Nc1cccc(C(=O)NCCc2ccco2)c1`, which Potency is on record?
A: inconclusive [inhibitor, partial curve]

Q: For `CC(C)(C)C1CCc2c(sc(NC(=O)C3CCCO3)c2C(N)=O)C1` (stereo unspecified), which Potency is on record?
A: inconclusive [inhibitor, single point]

Q: Which Potency does the source give for `CCCc1c(C(=O)N/N=C/c2c(OC)ccc3ccccc23)nnn1-c1nonc1N` here?
A: inconclusive [inhibitor, single point]

Q: For `CCOC(=O)c1ccc(NC(=S)NCC(O)c2ccccc2)cc1` (stereo unspecified), which Potency is on record?
A: inactive

Q: Which Potency does the source give for `CC1CCC(C(C)C)C(OCC(O)CNC(C)(C)C)C1` (stereo unspecified) here?
A: inactive

Q: Which Potency does the source give for `COc1ccc(CNC(=O)C2CCC(CNS(=O)(=O)c3ccccc3)CC2)cc1` (stereo unspecified) here?
A: inactive

Q: For `CC1=C/C(=N\NC(=S)Nc2cccnc2)CC(C)(C)C1`, which Potency is on record?
A: active: 3.16 µM

Q: For `C/C(N)=C(/C#N)C(=O)COC(=O)c1cc(-c2ccc(Br)cc2)nc2ccccc12`, which Potency is on record?
A: inconclusive [inhibitor, full curve]
